# Assay results from PubChem BioAssay (NCATS).
# This list was built around the results that the source calls inconclusive (neither active nor inactive); the mix of calls is not that of the screen. For part of these data: No potency is given beside an inconclusive call; the fits are too rough. For part of these data: A note “side channel” means that the fit belongs to a control or component signal, not to the main read-out. Calls of active or inactive are those of the source. Unless noted, calls follow the shape of the dose curve; as a rule, active = well fitted curve in the direction sought with a large enough effect; inconclusive = small, poorly fitted or top-dose-only effect, or another doubt; inactive = no such curve, though single readings can be large; an effect the other way counts as inactive or inconclusive.
# Assays:
# [1] = Cell Viability - Jurkat (AID 426;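 active = dose-dependent loss of cell ATP signal giving a full or clear fitted curve, ranked by lower potency value; inconclusive = weak partial curve or response only at the top dose; inactive = no loss of viability signal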;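 also: potency is read from the fitted curve at half-maximal effect; cells exposed to compound for 40 hours at 37 °C before ATP read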); conditions: qHTS
# In short: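 Cells of the human T-cell leukemia line Jurkat (E6-1) are seeded at 5000 per well, treated with compound across a concentration range for 40 hours at 37 °C, then lysed with CellTiter-Glo; luminescence reports ATP.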
# [2] = Cell Viability - MRC5 (AID 434; calls by dose curve;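 also: potency is read from the fitted curve at half-maximal effect; potency reflects cytotoxicity seen as loss of intracellular ATP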); conditions: MRC5 lung fibroblast viability, qHTS
# In short: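 Decrease in intracellular ATP, quantified by luciferase light output, reflects compound toxicity toward MRC5 cells exposed for 40 hr in complete culture medium. Concentration-response curves, scaled between DMSO and 100 uM tamoxifen, gave AC50 values.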
# [3] = Cell Viability - SK-N-SH (AID 435; calls by dose curve;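 also: potency is read from the fitted curve at half-maximal effect; compound exposure lasted 40 h at 37 °C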); conditions: SK-N-SH neuroblastoma cell viability qHTS
# In short: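 Luminescent ATP signal served as the viability read-out after 40 hours of compound treatment of human neuroblastoma SK-N-SH cells. Concentration-response data, scaled between DMSO and 100 uM tamoxifen, gave AC50 values by standard Hill modeling.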
# [4] = NFAT Signaling Pathway (AID 444; active = well fitted curve in either direction with a large enough effect, not every such curve was filed as active; inconclusive = small, poorly fitted or top-dose-only effect, or another doubt;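 also: carbachol stimulus at about its EC50 of 1 µM final; % is scaled to controls: 0 for no effect and ±100 for the full control effect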); conditions: Jurkat NFAT-bla M1, carbachol, beta-lactamase ratio, 5 h; at 17.2 µM (top of the series)
# In short: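 Jurkat cells carrying an NFAT-driven β-lactamase reporter and co-transfected muscarinic M1 receptor were treated with compound plus carbachol (1 uM final, an EC50 level) for 5 h at 37 °C. CCF4 loading followed for 1 h at RT; 460/530 nm ratio gave %activity.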
# [5] = Stat Signaling Pathway (AID 446; active = well fitted curve in either direction with a large enough effect, not every such curve was filed as active; inconclusive = small, poorly fitted or top-dose-only effect, or another doubt;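 also: ME-180 cervical cancer cells given 40 pM IL-6 alongside compound; SIE-controlled beta-lactamase reporter measured as 460/530 nm FRET emission ratio; top concentration of the series differs between compounds; % is scaled to controls: 0 for no effect and ±100 for the full control effect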); conditions: ME-180 SIE beta-lactamase reporter, IL-6 stimulated, 5 h; at 17.2 µM (top of the series)
# In short: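 Normalization used AC90 stimulation (300 pM IL-6) and AC90 inhibition (125 nM pan-JAK inhibitor at 40 pM IL-6). The underlying signal is SIE-driven beta-lactamase in ME-180 cells after 5 h IL-6 exposure with compound.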
# [6] = Cell Viability - N2a (AID 540); conditions: N2a mouse neuroblastoma cell viability; activity change, negative = cytotoxicity: at 92.2 µM (top of the series);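 also: potency is read from the fitted curve at half-maximal effect; cells exposed to compound for 40 h at 37 °C; nearly all actives have a fitted effect of over 45% in size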
# In short: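 Cytotoxicity was scored as loss of cellular ATP in N2a cells, a mouse neuroblastoma line. Compounds are applied in a qHTS concentration series for 40 hr at 37 °C.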
# [7] = Cell Viability - NIH 3T3 (AID 541); conditions: NIH 3T3 cell viability, qHTS; activity change, negative = cytotoxicity: at 92.2 µM (top of the series);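 also: plate controls were DMSO alone for no effect and tamoxifen positive control for full effect; nearly all actives have a fitted effect of over 25% in size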
# In short: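 Cells seeded at 1000/well, rested 5 hr at 37 °C, then dosed and incubated 40 hr at 37 °C. CellTiter-Glo added, 20 min room temperature, luminescence read. AC50 by Hill fit.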
# [8] = Cell Viability - H-4-II-E (AID 543); also: potency is read from the fitted curve at half-maximal effect; nearly all actives have a fitted effect of over 35% in size
# In short: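 Cells seeded at 1500 per well and rested 5 hr; compounds added; 40 hr incubation at 37 °C; CellTiter-Glo added, 20 min at room temperature; luminescence read. Hill-equation fits gave AC50.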
# [9] = Cell Viability - SH-SY5Y (AID 544); conditions: SH-SY5Y neuroblastoma cell viability; at 92.2 µM (top of the series); also: nearly all actives have a fitted effect of over 55% in size
# In short: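 Cells were plated at 1500 per well and allowed 5 hr at 37 °C. Compounds were added across a concentration range and incubated 40 hr at 37 °C. CellTiter-Glo was added for 20 min at room temperature before luminescence reading.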
# [10] = Cell Viability - Renal Proximal Tubule (AID 545); conditions: renal proximal tubule cells viability, primary cells of rat origin; at 91.7 µM (top of the series); also: nearly all actives have a fitted effect of over 40% in size
# In short: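 Luminescent ATP signal (CellTiter-Glo) served as the viability read-out after 40 hr compound exposure of freshly isolated rat proximal tubule cells at 37 °C. Concentration-dependent ATP loss was fitted with the Hill equation to give AC50.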
# [11] = Cellular Toxicity (caspase-3) Jurkat (AID 655); conditions: Jurkat caspase-3 activation, luminescence, DMSO = 0%, tamoxifen = 100%; at 92.2 µM (top of the series);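 also: cells exposed to compound for 16 h at 37 °C before reading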
# In short: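 5000 Jurkat cells/well; compound 16 hr, 37 °C; Caspase-Glo 3/7 added, 20 min RT; luminescence read. Norm: DMSO = 0%, tamoxifen 100 uM = 100%. AC50, Hill model.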
# [12] = Cellular Toxicity (caspase-3) Hek293 (AID 664); conditions: HEK293 caspase-3 activation, DMSO = 0%, 100 µM tamoxifen = 100%; at 92.2 µM (top of the series);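 also: cells exposed to compound for 16 h at 37 °C before readout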
# In short: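 qHTS, HEK293 (human embryonic kidney), 16 h cpd exposure in complete medium. Caspase-3/7 activation = luminescence increase; normalized to DMSO/100 uM tamoxifen; Hill-fit AC50.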
# [13] = biological target: Cytochrome P450 3A4 (Homo sapiens) (UniProt P08684); experiment: qHTS Assay for Activators of Cytochrome P450 3A4 (AID 885); also: nearly all actives have a fitted effect of over 65% in size
# UniProt P08684, sequence (P08684 whole entry, looked up): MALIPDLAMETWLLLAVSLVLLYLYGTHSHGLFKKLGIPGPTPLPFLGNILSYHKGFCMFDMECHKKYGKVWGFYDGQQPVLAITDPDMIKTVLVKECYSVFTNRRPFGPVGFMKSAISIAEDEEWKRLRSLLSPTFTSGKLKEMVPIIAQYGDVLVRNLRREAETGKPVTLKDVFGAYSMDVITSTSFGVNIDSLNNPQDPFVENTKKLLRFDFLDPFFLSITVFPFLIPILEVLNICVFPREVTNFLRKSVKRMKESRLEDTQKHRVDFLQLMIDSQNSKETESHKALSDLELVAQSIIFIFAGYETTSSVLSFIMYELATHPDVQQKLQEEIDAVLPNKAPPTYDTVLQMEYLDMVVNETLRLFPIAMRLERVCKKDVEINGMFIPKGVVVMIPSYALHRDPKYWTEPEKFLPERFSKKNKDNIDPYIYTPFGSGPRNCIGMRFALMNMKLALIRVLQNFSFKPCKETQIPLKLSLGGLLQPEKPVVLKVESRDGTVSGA
# In short: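 Human CYP3A4 dealkylates Luciferin-PPXE to luciferin, which luciferase detection converts to light. Substrate was at its KM (25uM), buffer 200mM KPO4, reaction 60 min at RT.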
# [14] = qHTS Assay for Identification of Small Molecule Agonists for Hypoxia Response Element Signaling Pathway (AID 914; active = well fitted activation curve with a large enough effect in the signal ratio, with a control signal flat, not every such curve was filed as active; inconclusive = small, poorly fitted or top-dose-only effect, or effect the other way, or a change in a side signal; the % refers to the signal ratio; also: potency is read from the fitted curve at half-maximal effect); conditions: ME-180 (cervical carcinoma) HRE-bla reporter, beta-lactamase ratio, CoCl2, 17 h; activation: stronger effect = higher value
# In short: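 Positive modulation of EC50 CoCl2-induced hypoxia response element signaling is measured in ME-180 cells with a beta-lactamase reporter. Compounds are titrated, incubation runs 17 hours, and %Activity derives from the blue/green ratio.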
# [15] = MultiTox-Fluor Cytotoxicity Assay - LYMP1-002 - Live Cells (AID 955);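 also: cells exposed to compound for 16 hours; % is scaled to controls: 0 for no effect and ±100 for the full control effect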
# In short: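 Cells were seeded at 2500 per well and incubated 5 hr. Compounds were then added for 16 hr at 37 C, followed by MultiTox-Fluor reagent for 60 min at room temperature and fluorescence reading of viable-cell protease signal.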
# [16] = Cell Viability - LYMP1-003 - Assay at 40 hr (AID 964); also: potency is read from the fitted curve at half-maximal effect; nearly all actives have a fitted effect of over 60% in size
# In short: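 Luminescent ATP signal (CellTiter-Glo) served as the viability read-out after 40 hr compound treatment of human lymphoblastoid LYMP1-003 cells at 37 C. Decreases in ATP were fitted with the Hill equation to give AC50.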
# [17] = Cell Viability - LYMP2-003 (AID 965); conditions: LYMP2-003 lymphoblastoid cell viability; activity change, negative = cytotoxicity: at 92.2 µM (top of the series);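 also: cells exposed to compounds for 24 h before reading; 0% = DMSO only and full effect = 92 µM tetraoctylammonium bromide; nearly all actives have a fitted effect of over 50% in size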
# In short: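 Seed 2500 lymphoblastoid cells/well; incubate 5 hr, 37 C; add compounds; incubate 24 hr, 37 C; add CellTiter-Glo, 30 min RT; read luminescence. AC50 from Hill fit.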
# [18] = Cell Viability - LYMP2-004 (AID 966); also: potency is read from the fitted curve at half-maximal effect; nearly all actives have a fitted effect of over 65% in size
# In short: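 qHTS cytotoxicity: human lymphoblastoid line, 24 hr compound treatment, 37 C, complete medium. Viability read as cellular ATP via luciferase luminescence; tetraoctylammonium bromide served as positive control.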
# [19] = Cell Viability - LYMP2-011 (AID 969); also: potency is read from the fitted curve at half-maximal effect; nearly all actives have a fitted effect of over 60% in size
# In short: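 In this qHTS cytotoxicity format, compounds are tested across concentrations on human lymphoblastoid cells in complete medium for 24 hours at 37 C. Viability is taken as cellular ATP measured by luciferase luminescence.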
# [20] = Cell Viability - LYMP2-015 (AID 971); also: potency is read from the fitted curve at half-maximal effect; nearly all actives have a fitted effect of over 55% in size
# In short: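 Cells are seeded at 2500 per well and incubated 5 hr at 37 C. Compounds are added across a concentration series for 24 hr at 37 C. CellTiter-Glo is added, and luminescence is read after 30 min at room temperature.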
# [21] = Cell Viability - LYMP2-017 (AID 972); also: potency is read from the fitted curve at half-maximal effect; nearly all actives have a fitted effect of over 55% in size
# In short: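 Cytotoxicity is scored as a concentration-dependent drop in cellular ATP in a human lymphoblastoid line after 24 hr treatment at 37 C. Values are AC50s from Hill-equation modelling.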
# [22] = Cell Viability - LYMP2-019 (AID 973); conditions: LYMP2-019 lymphoblastoid cell line viability; also: potency is read from the fitted curve at half-maximal effect; nearly all actives have a fitted effect of over 55% in size
# In short: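 Cytotoxicity is scored as a concentration-dependent drop in cellular ATP after cells (2500/well) receive compound for 24 hr at 37 C. Tetraoctylammonium bromide serves as positive control.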
# [23] = Cell Viability - LYMP2-023 (AID 975)
# In short: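 Steps: seed 2500 human lymphoblastoid cells per well, incubate 5 hr at 37 C, add compound for 24 hr at 37 C, add CellTiter-Glo, hold 30 min at room temperature, read luminescence. AC50 derived by Hill modelling.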
# [24] = Cell Viability - LYMP2-025 (AID 976); conditions: LYMP2-025 lymphoblastoid cell viability; also: potency is read from the fitted curve at half-maximal effect
# In short: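 Acute cytotoxicity is scored as a concentration-dependent fall in intracellular ATP, measured by luciferase luminescence, in human lymphoblastoid LYMP2-025 cells exposed to compound for 24 hours at 37 C. AC50 values come from standard Hill fits.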
# [25] = Cell Viability - LYMP2-002 (AID 977);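 also: potency is read from the fitted curve at half-maximal effect; compound exposure lasted 24 h at 37 °C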
# In short: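 In this qHTS viability screen, 2500 human lymphoblastoid cells per well receive compound for 24 hr at 37 C, and luciferase-based ATP luminescence gives the viability signal. Tetraoctylammonium bromide serves as positive control.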
# [26] = Cell Viability - LYMP2-006 (AID 978); also: potency is read from the fitted curve at half-maximal effect; nearly all actives have a fitted effect of over 60% in size
# In short: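 Cells are seeded at 2500 per well and rested 5 hr at 37 C. Compounds are added across a concentration series for 24 hr at 37 C, after which ATP is quantified by luciferase luminescence.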
# [27] = Cell Viability - LYMP2-007 (AID 979);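 also: potency is read from the fitted curve at half-maximal effect; cells exposed to compound for 24 h before reading; nearly all actives have a fitted effect of over 60% in size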
# In short: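 Cells are seeded at 2500 per well and rested 5 hr. Compounds are then added over a concentration series for 24 hr at 37 C. CellTiter-Glo is added for 30 min at room temperature before luminescence reading.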
# [28] = Cell Viability - LYMP2-010 (AID 981)
# In short: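 Steps: seed 2500 LYMP2-010 cells per well; incubate 5 hr at 37 C; add compound; incubate 24 hr at 37 C; add CellTiter-Glo, wait 30 min at room temperature; read luminescence. Concentration-response fitted to Hill equation for AC50.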
# [29] = Cell Viability - LYMP2-012 (AID 982)
# [30] = Cell Viability - LYMP2-014 (AID 983); also: potency is read from the fitted curve at half-maximal effect; nearly all actives have a fitted effect of over 50% in size
# In short: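 Cells are plated at 2500/well and left 5 hr at 37 C. Compounds are added across a concentration range and incubated 24 hr at 37 C in complete medium. CellTiter-Glo is added, and luminescence is read after 30 min at room temperature.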
# Tags tell the direction and shape of the fitted curve or compound fluorescence and quenching.
structure (smiles),measurement,setting,value
Oc1c(Cl)cc(Cl)cc1Sc1cc(Cl)cc(Cl)c1O,Potency,[1],active: 47.8 µM
same,Potency,[2],inconclusive [partial curve]
same,Potency,[3],inconclusive [partial curve]
same,"activity change, negative = inhibition",[4],active: -126%
same,"activity, negative = inhibition",[5],active: -99.1%
same,Potency,[6],active: 31.6 µM
same,"activity change, negative = cytotoxicity",[7],inconclusive: -60.8%
same,Potency,[8],active: 31.6 µM
same,"viability change, negative = cytotoxic",[9],inconclusive: -73%
same,"activity change, negative = cytotoxicity",[10],inconclusive: -75.2%
same,caspase-3 activation,[11],inconclusive: 76.8%
same,caspase-3 activation,[12],inconclusive: 41.1%
same,Potency,[13],inactive
same,Potency,[14],"inconclusive [cytotoxic, side channel, partial curve]"
same,Potency,[15],inactive
same,Potency,[16],active: 39.8 µM
same,"activity change, negative = cytotoxicity",[17],inconclusive: -31.7% [cytotoxic]
same,Potency,[18],"inconclusive [cytotoxic, partial curve, poor fit]"
same,Potency,[19],"inconclusive [cytotoxic, partial curve]"
same,Potency,[20],"inconclusive [cytotoxic, partial curve]"
same,Potency,[21],"inconclusive [cytotoxic, partial curve]"
same,Potency,[22],"inconclusive [cytotoxic, partial curve]"
same,Potency,[23],"inconclusive [cytotoxic, partial curve, poor fit]"
same,Potency,[24],"inconclusive [cytotoxic, partial curve]"
same,Potency,[25],"inconclusive [cytotoxic, partial curve]"
same,Potency,[26],"inconclusive [cytotoxic, partial curve, poor fit]"
same,Potency,[27],"inconclusive [cytotoxic, partial curve]"
same,Potency,[28],active: 50.1 µM
same,Potency,[29],"inconclusive [cytotoxic, partial curve, poor fit]"
same,Potency,[30],"inconclusive [cytotoxic, partial curve]"
